The source of these data is ChEMBL document CHEMBL4888484, “Replenishing the malaria drug discovery pipeline: Screening and hit evaluation of the MMV Hit Generation Library 1 (HGL1) against asexual blood stage Plasmodium falciparum ,using a nano luciferase reporter read-out” (2022).

The structures appear in SMILES notation. Hit rate of the full screen: of about 150,000 compounds, about 540 (0.36%) showed an effect of 50% or more. This is one part of the list.

For the assay, the system named is Plasmodium falciparum. Nature of the assay: Primary screen in NF54 nanoGlo assay, in single point, at 2uM, 72h; a lower Z score goes with more inhibition. The conditions noted are these: timepoint 72 hour. Type of assay: functional, Erythrocyte.
Broadly, the % Inhibition is the relative decrease from the control value, in per cent. Take `CN(C)S(=O)(=O)N1C[C@H]2CC[C@@H](C1)N(Cc1ccc(F)c(Cl)c1)C2`: the “% Inhibition” value amounted to 3% and the Z score was -0.55.
Taken in the same sequence, the figures for `CC1CCC(n2cc(C(=O)C(F)(F)F)cn2)CC1` (centres undefined) were -15% and 1.79.
Taken in the same sequence, the figures for `CCCCNC(=O)N1C[C@H](O)C[C@H]1c1n[nH]c(-c2ccccc2)n1` were 2% and -0.3.
Taken in the same sequence, the figures for `O=C(c1cnc2ccccc2n1)N1CC[C@H](N2C(=O)CNC2=O)C1` were -9% and 1.78.
Turning to `Cc1cccc(CN2C(=O)OC(c3ccc(NC(=O)c4cccs4)cc3)C2C(=O)NCCN(C)C)c1` (centres undefined), the “% Inhibition” value is on record as -12% and the Z score came out at 1.71.
Taken in the same sequence, the figures for `Cc1c(NC(=O)CN2C(=O)C(=O)c3ccccc32)c(=O)n(-c2ccccc2)n1C` were 3% and -0.55.
Regarding `Cc1ccsc1C(=O)Nc1cccc(C#Cc2ccccn2)c1`, the “% Inhibition” value was -1% and the Z score came to 0.1.
Taken in the same sequence, the figures for `CC(C1CC1)N(C(=O)C1CCS(=O)(=O)C1)c1cccc(C(F)(F)F)c1` (centres undefined) were -10% and 1.22.
On the same counts, the results for `Cc1ccc(O[C@H]2COCC[C@H]2NC(=O)c2ccc(C#N)nc2)cn1` are -4% and 0.49.
For `CC(=O)Nc1cc(C)c(O)c(NC(C)=O)c1`, the “% Inhibition” value is recorded as -8% and the Z score amounted to 1.08.
On the same counts, the results for `Cc1ncsc1CN(C)c1ccc(C(=O)N2CCc3ccccc32)cn1` are -14% and 1.38.
On the same counts, the results for `Cc1ccoc1C(=O)N1CCNC(=O)C1` are -6% and 1.17.
Take `Nc1nc(C(=O)NC2(CN3CCCCC3)CC2)cs1`: the “% Inhibition” value stood at 1% and the Z score is reported as -0.09.
On the same counts, the results for `CCN1CCN(CCn2cc(Cl)cn2)C(=O)C1=O` are 4% and -0.78.
Taken in the same sequence, the figures for `CC[C@@H]1C(=O)NCCCN1CC(=O)Nc1cc(OC)ccc1OC` were 10% and -1.39.
For the compound `CCOc1ccc(S(=O)(=O)N2CC[C@H](CNC(=O)NC)[C@H](N(C)C)C2)cc1`, the “% Inhibition” value is given as -10% and the Z score stood at 1.39.
Consider `Cc1nc(Cn2ccnc2C)n(CC(F)(F)F)n1`, for which the “% Inhibition” value is -7% and the Z score is recorded as 1.15.
`CC(=O)c1cccc(NC(=O)CN2CC(c3nc4ccccc4s3)C2)c1`: the “% Inhibition” value is reported as -16% and the Z score was 2.03.
Taken in the same sequence, the figures for `COc1ccnc(N[C@H]2CCCCCN(C(=O)CN3C(=O)CN(C)C3=O)C2)n1` were -6% and 0.85.
On the same counts, the results for `Cc1cc(-n2cnnc2Cc2c[nH]c3ccccc23)n(C)n1` are -15% and 1.29.
Taken in the same sequence, the figures for `CCOC(=O)Cn1cc2ccc(C)cc2n1` were -1% and 0.11.
For `N#Cc1cc2c(=O)n(Cc3ccccc3)ccc2nc1N1CCOCC1`, the “% Inhibition” value was determined as 34% and the Z score is on record as -3.79.
On the same counts, the results for `Fc1ccc(-c2ccc(CNCc3ccco3)o2)cc1Cl` are -34% and 3.99.
On the same counts, the results for `CN1CC=C(c2ccccc2)[C@@H](CO)C1` are -7% and 1.39.
Taken in the same sequence, the figures for `CC(C)(N)C(=O)N1CCC[C@@]2(CCC(=O)N(CCc3ccccc3)C2)C1` were -8% and 1.22.
With `CCn1c(-c2cc(NC(=O)c3ccccc3F)[nH]n2)cc2c(OC)cccc21`, the “% Inhibition” value is -3% and the Z score is 0.29.
Taken in the same sequence, the figures for `O=C(Nc1cccc2[nH]cnc12)c1ccc(=O)n(-c2ccccc2F)n1` were -2% and 0.18.
On the same counts, the results for `Cc1ccccc1N1CCN(C(=O)c2snc3c(=O)n(C)c(=O)[nH]c23)CC1` are -3% and 0.47.
For `N#CCc1cccc(C(=O)N(Cc2ccsc2)c2cccnc2)c1`, the “% Inhibition” value is reported as -6% and the Z score stood at 0.97.
Turning to `CCc1nnc(COc2cccc(F)c2C#N)n1C`, the “% Inhibition” value was -3% and the Z score is listed as 0.22.
Taken in the same sequence, the figures for `COc1ccccc1CCC(=O)N1CC2(C[C@H](N3CCCC3)CO2)C1` were -4% and 0.65.
Take `CCOc1ccccc1NC(=O)C[C@H]1C(=O)Nc2ccccc2N1C(=O)c1ccc(C)cc1`: the “% Inhibition” value is 12% and the Z score is reported as -1.68.
Taken in the same sequence, the figures for `CC(C)c1nnc(NC(=O)CN2CCC[C@H]2c2ccnn2C)s1` were -6% and 0.92.
As for `CC(C)Cc1nc2cc(NS(=O)(=O)N(C)C)cc(C(=O)N3CCC[C@H]3CO)c2n1C`, the “% Inhibition” value was -13% and the Z score is 1.32.
Taken in the same sequence, the figures for `CO[C@H]1CCN(C(=O)CCc2nc3ccccc3[nH]2)C1` were -19% and 2.41.
Taken in the same sequence, the figures for `CC(C)CN1C[C@H](OCc2cccc(F)c2)CN(C(=O)c2cccc3nccnc23)CC1=O` were 1% and -0.2.
Taken in the same sequence, the figures for `CC(=O)NCC(=O)Nc1nnc(C2(c3ccccc3)CC2)s1` were -7% and 0.71.
Take `CC(C)NC(=O)N1CCCCC[C@H]1c1ccccc1Cl`: the “% Inhibition” value was -3% and the Z score is given as 0.46.
On the same counts, the results for `O=C(Cc1cccnc1)N(Cc1ccccc1)CC1(O)CCCC1` are 1% and -0.13.
Taken in the same sequence, the figures for `CC(=O)N1CCC(C(=O)N[C@H]2CCN3C(=O)N(c4ccc(F)c(Cl)c4)C(=O)[C@@H]3C2)CC1` were 12% and -1.43.
On the same counts, the results for `CC(C)OCc1noc(CN2CCC[C@@H]3COC[C@@H]32)n1` are -10% and 1.75.
As for `O=C(c1ccnc(C2=CCCCC2)c1)N1CCOCC1`, the “% Inhibition” value is listed as -7% and the Z score came to 1.51.
